Experimental data reported in PMC10726135.
The list shows a part of the results. At the low end of the ranking, values are background and their order means little. Measured with an extract: partners may take part in the binding.

Each sequence was assayed against T1, HNF4alpha2 (COS-7 nuclear extract) (UniProt P41235) (assay: protein-binding microarray). Details: COS-7 nuclear extract on double-stranded Agilent 4x180k PBM; binding buffer, salt, pH and temperature not given; high values mean tight binding; double strand, one strand shown; sequences stand for … in …GCCTAGGGAGATTAGAGTATCGGTCGA.
T1 sequence: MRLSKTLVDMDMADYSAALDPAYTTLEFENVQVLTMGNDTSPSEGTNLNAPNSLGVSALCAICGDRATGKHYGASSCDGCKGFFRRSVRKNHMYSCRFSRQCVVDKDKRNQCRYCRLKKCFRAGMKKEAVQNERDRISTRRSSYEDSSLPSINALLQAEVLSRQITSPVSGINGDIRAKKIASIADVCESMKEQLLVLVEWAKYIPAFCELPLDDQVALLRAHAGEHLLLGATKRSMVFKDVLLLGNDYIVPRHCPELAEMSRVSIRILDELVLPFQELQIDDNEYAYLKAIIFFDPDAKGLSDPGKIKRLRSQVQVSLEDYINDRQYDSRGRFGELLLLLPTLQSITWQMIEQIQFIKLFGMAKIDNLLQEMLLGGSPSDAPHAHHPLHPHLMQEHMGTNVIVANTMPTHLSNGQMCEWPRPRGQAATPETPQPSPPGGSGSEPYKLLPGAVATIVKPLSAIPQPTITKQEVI

Sequence	binding signal (log2 normalized intensity)
AACACAGGTGACCTTTGCTCCGGTTCCCAA	6.26
GCATCTTATCTGAATCTGGAATCACGTTCG	1.19
GAAGACTTCATGATAACACTTCCCAAGCAT	-1.15
GATGTCTCTCATTGGAATGAGCCTCCTGAA	0.306
GGCAGCCTTCGTTTGCTTTTCCTTATCATC	-0.749
CTTGGCAAGGGGAGGCACTCATGGTGTTTG	0.674
CTTTAGCTCCTGGGCCCAGATATACAAGAA	0.542
AAGAAAAGCCTTGTGGCAGTGAGAACAGGT	0.143
ATCTTGATTACTATAGGGCAAATGGAAGAA	0.925
GTGTTGTGACTACCTGGTTAAAAGGACAAC	0.125
GTCTGACCAACCTGTCCAAAGGTCATCTGT	7.04
AAGATCTGTGAAAGAAAAGTACTTTAGTGT	1.6
TGGCGCCATTTCAGGTCCACCAAGGTGGTG	-0.658
CTCCCACATGCTGTCTAGGCCAGAGTTCAC	2.29
CCCTGACTAAATTCTTGTCAATGACCCTAA	3.43
AAATCTGCACTTTACGTAAGATAAGGTGAA	-0.241
CAGTTGACATGATACCTTCCTGAATGCCTA	-0.905
CAGCATAGAAAACAAGTTAGACAGTGCCTA	-1.21
TTCTTTTTTTTTTTTTTTTTTTTTTGAGAT	3
AGGAGCCTCTGCAACCTTTGCTCTCCCTCC	4.51

Sequence	binding signal (log2 normalized intensity)
TGAGAGATTAAACATGCTCTGCATACCTGC	-1.07
GCAGATGGTTTCATCTGGTTTCTGTTTGAG	1.45
CAGTTTGGACTTTGATCCTGATGACTGCAG	7.49
CTCCTTCATCTTCAAAGCCAGCAATGGCAG	-0.267
ATTACAACCAAAGGAATTTAGCCTTTAACC	2.2
CCTCACTTATCACATTCTGCTCTTGAACCA	0.488
CGTGGTTCAGGGAGCGAATAAATACATAAA	-0.979
ATGCAACACAGGGGGAGGAATGCTGACCTC	2.66
GCGCCTTGCGAGCGTACGCAGGGCGGCCGG	0.55
TGACTCAGTCTTACTTGACAATTACATAGT	0.692
GGGTGCTGCCTTTCCTGTGACTTTTGGCCA	3.42
CTGACAGGATGAATTTATTGCCCTCAGGGT	1.97
AGCCCTAAAGACCACTGGGCTTTCACAAGG	-1.15
CCGTCACTGCAAGGCAAACACTCAAGGTCC	-0.943
GAGCACAGGGTCAGCAGATCTTTGTTAACA	0.301
AGTCTGTCTTGCTGTTTTTCCAGTTTTTGT	1.59
TCAAAGGTGGAGATAACAAACTTGATTGGG	-0.96
TATCAGGGAGATAGTCTGAGAGTCACTGCC	-0.707
TGTTGACATCTTGATTTAGCCCAGTGAGAC	1.28
ATGGAACAAGCCAGGTGTGCAGAGAGCAAA	-1.26
